Source: PubChem BioAssay (Tox21)
The inconclusive results got no clear call from the source; some entries with a clear call stand among them for comparison. For part of these data: Potencies beside an inconclusive call are fits to weak or partial responses and may not hold up. Calls of active or inactive are those of the source. Unless noted, calls follow the shape of the dose curve; as a rule, active = well fitted curve in the direction sought with a large enough effect in the repeat runs; inconclusive = weak or mixed curves; inactive = no such curve, though single readings can be large; an effect the other way counts as inactive or inconclusive.

What was measured:
[1] = qHTS assay for identifying genotoxic compounds that show differential cytotoxicity against isogenic chicken DT40 cell lines with known DNA damage response pathways - wild type cell line (AID 743012); conditions: DT40 wild type chicken cells viability, CellTiter-Glo, 40 h; activity change, negative = cytotoxicity: at 68.4 µM (top of the series) unless noted; also: nearly all actives have a fitted effect of over 60% in size; also: potency is read from the fitted curve at half-maximal effect
Summary of the method: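 Viability by ATP luminescence (CellTiter-Glo, 30 min RT) after 40 h compound treatment at 37 C/5% CO2, using 300 parental DNA repair-proficient DT40 cells per well.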

[2] = qHTS assay to identify small molecule antagonists of the thyroid receptor (TR) signaling pathway - cell viability counter screen (AID 743064); conditions: GH3.TRE-Luc viability, CellTiter-Fluor, 24 h; activity change, negative = cytotoxic: at 70.3 µM (top of the series) unless noted; also: potency is read from the fitted curve at half-maximal effect; nearly all actives have a fitted effect of over 50% in size
Summary of the method: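 Viability of T3-stimulated (1 nM final) GH3.TRE-Luc cells is measured by CellTiter-Fluor fluorescence after 23.5 h compound exposure at 37 °C plus 30 min reagent incubation.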

[3] = target: Peroxisome proliferator-activated receptor delta (Homo sapiens) (UniProt Q03181); experiment: qHTS assay to identify small molecule agonists of the peroxisome proliferator-activated receptor delta (PPARd) signaling pathway (AID 743212; calls by dose curve; also: % is scaled to controls: 0 for no effect and ±100 for the full control effect); conditions: HEK293H PPARd-UAS-bla, beta-lactamase FRET ratio, 17 h; activation: at 62.6 µM (top of the series) unless noted
UniProt Q03181, sequence (Q03181 whole entry, looked up): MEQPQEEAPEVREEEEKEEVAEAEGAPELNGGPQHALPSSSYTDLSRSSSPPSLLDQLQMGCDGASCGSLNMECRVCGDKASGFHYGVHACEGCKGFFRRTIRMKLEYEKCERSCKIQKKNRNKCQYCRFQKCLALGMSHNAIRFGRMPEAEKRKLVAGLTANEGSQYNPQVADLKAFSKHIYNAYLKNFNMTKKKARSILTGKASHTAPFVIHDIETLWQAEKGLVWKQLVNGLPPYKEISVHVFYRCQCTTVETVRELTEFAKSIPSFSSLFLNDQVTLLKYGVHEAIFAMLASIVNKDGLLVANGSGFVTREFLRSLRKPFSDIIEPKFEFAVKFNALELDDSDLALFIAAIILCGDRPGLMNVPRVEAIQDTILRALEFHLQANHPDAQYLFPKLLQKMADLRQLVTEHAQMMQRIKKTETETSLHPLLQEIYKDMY
Summary of the method: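 Tox21 library screened in GeneBLAzer PPARd UAS-bla HEK293H cells. After compound treatment at 37 C, a FRET-based beta-lactamase substrate was applied for 2 h and fluorescence recorded.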

[4] = target: Vitamin D3 receptor (Homo sapiens) (UniProt P11473); experiment: qHTS assay to identify small molecule antagonists of the vitamin D receptor (VDR) signaling pathway (AID 743223; active = well fitted inhibition curve with a large enough effect in the signal ratio in the repeat runs, not every such curve was filed as active; inconclusive = weak or mixed curves, or effect the other way; inactive = no such curve, though single readings can be large or run the other way; the % refers to the signal ratio; also: % is scaled to controls: 0 for no effect and ±100 for the full control effect); conditions: VDR-UAS-bla HEK293T, beta-lactamase FRET ratio, 16 h; activity change, negative = inhibition: at 61 µM (top of the series) unless noted
UniProt P11473, sequence (P11473 whole entry, looked up): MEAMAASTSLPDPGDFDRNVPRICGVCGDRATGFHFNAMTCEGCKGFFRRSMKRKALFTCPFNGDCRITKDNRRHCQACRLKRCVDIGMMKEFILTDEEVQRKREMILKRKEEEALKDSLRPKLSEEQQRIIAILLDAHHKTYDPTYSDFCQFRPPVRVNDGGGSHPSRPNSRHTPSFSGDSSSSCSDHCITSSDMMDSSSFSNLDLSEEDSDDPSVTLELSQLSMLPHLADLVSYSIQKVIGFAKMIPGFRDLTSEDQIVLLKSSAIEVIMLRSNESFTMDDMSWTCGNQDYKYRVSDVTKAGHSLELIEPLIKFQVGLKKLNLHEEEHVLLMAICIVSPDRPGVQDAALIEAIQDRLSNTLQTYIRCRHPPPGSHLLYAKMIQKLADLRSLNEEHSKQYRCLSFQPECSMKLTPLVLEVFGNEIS
Summary of the method: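 Quantitative HTS in VDR-bla reporter cells stimulated with 1alpha,25-dihydroxyvitamin D3, 3 nM final. Compound exposure 16 h, 37C, 5% CO2. Read-out: beta-lactamase FRET substrate fluorescence, 2 h RT.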

[5] = target: Thyrotropin receptor (Homo sapiens) (UniProt P16473); experiment: qHTS assay to identify small molecule antagonists of the thyroid stimulating hormone receptor (TSHR) signaling pathway (AID 1259385; calls by dose curve; also: % is scaled to controls: 0 for no effect and ±100 for the full control effect; nearly all actives have a fitted effect of over 20% in size); conditions: TSHR-HEK293 cAMP HTRF, TSH-stimulated antagonist mode; activity change, negative = inhibition: at 92.4 µM (top of the series) unless noted
UniProt P16473, sequence (P16473 whole entry, looked up): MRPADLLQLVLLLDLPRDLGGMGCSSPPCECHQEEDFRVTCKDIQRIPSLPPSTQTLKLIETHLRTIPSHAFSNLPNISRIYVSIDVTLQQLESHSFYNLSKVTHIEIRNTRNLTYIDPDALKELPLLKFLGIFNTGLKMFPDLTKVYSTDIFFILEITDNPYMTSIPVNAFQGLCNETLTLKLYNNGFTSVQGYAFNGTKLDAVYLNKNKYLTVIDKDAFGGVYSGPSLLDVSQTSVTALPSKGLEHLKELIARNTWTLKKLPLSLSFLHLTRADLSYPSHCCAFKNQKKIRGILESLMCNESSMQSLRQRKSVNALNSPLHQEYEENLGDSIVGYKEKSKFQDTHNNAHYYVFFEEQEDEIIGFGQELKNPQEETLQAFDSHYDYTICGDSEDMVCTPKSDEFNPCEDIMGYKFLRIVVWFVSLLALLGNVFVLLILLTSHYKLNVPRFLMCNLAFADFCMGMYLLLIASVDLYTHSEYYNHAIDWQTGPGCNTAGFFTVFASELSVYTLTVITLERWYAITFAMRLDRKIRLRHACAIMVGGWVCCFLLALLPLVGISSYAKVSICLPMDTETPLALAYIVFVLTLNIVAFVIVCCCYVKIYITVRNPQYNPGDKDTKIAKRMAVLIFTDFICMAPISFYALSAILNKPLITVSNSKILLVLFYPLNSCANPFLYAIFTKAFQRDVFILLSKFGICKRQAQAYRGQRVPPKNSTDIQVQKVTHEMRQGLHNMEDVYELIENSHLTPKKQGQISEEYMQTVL
Summary of the method: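 TSHR-HEK293 cells (800/well) plated 18 h, then compounds with Ro20-1724 and TSH at 1.5 ng/mL final, 30 min at room temperature. cAMP quantified by HTRF (cAMP-d2/anti-cAMP-cryptate, 1 h); 15 concentrations in triplicate.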

[6] = target: Cytochrome P450 1A2 (Homo sapiens) (UniProt P05177); experiment: Cytochrome P450 Family 1 Subfamily A Member 2 (CYP1A2) small molecule antagonists: luciferase reporter qHTS assay (AID 1671199); also: nearly all actives have a fitted effect of over 50% in size; also: potency is read from the fitted curve at half-maximal effect
UniProt P05177, sequence (P05177 whole entry, looked up): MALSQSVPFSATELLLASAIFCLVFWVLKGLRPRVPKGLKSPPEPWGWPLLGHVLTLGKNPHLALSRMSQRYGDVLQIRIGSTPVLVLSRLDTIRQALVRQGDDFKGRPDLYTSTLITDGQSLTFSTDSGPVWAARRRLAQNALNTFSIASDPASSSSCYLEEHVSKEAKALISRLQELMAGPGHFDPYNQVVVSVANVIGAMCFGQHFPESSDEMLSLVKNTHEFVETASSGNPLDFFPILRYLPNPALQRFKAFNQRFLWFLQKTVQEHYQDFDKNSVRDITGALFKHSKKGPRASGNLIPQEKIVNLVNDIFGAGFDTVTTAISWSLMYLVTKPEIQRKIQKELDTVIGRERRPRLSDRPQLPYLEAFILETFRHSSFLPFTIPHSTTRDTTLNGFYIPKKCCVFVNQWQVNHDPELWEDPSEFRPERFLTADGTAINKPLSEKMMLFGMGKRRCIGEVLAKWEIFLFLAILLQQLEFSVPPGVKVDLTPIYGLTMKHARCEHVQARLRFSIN
Summary of the method: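 Luminescence from luciferin formed by CYP1A2 from a proluciferin substrate, read 20 min after detection reagent. Compound was pre-incubated 10 min with enzyme-substrate, and reaction started with NADPH regeneration solution for 1 h at room temperature; furafylline control.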

[7] = qHTS assay for small molecule disruptors of the mitochondrial membrane potential (AID 720635); conditions: HepG2 mitochondrial membrane potential, Mito-MPS dye ratio; ratio activity, negative = MMP loss: at 83.2 µM (top of the series) unless noted; also: potency is read from the fitted curve at half-maximal effect
Summary of the method: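 HepG2 cells exposed to compound 1 hr at 37C, then Mito-MPS dye 30 min. Ratio read of aggregate (540/590 nm) versus monomer (490/535 nm) fluorescence.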

[8] = qHTS assay for identifying genotoxic compounds that show differential cytotoxicity against isogenic chicken DT40 cell lines with known DNA damage response pathways - Rev3 mutant cell line (AID 743014); conditions: chicken DT40 Rev3-/- viability, CellTiter-Glo, 40 h; activity, negative = cytotoxicity: at 68.4 µM (top of the series) unless noted; also: potency is read from the fitted curve at half-maximal effect; nearly all actives have a fitted effect of over 55% in size
[9] = target: Peroxisome proliferator-activated receptor gamma (Homo sapiens) (UniProt P37231); experiment: qHTS assay to identify small molecule agonists of the peroxisome proliferator-activated receptor gamma (PPARg) signaling pathway (AID 743094; active = well fitted activation curve with a large enough effect in the signal ratio in the repeat runs, not every such curve was filed as active; inconclusive = weak or mixed curves, or effect the other way; inactive = no such curve, though single readings can be large or run the other way; the % refers to the signal ratio; also: % is scaled to controls: 0 for no effect and ±100 for the full control effect); conditions: HEK293H PPARg-UAS-bla, beta-lactamase FRET ratio, 17 h; activation: at 57 µM (top of the series) unless noted
UniProt P37231, sequence (P37231 whole entry, looked up): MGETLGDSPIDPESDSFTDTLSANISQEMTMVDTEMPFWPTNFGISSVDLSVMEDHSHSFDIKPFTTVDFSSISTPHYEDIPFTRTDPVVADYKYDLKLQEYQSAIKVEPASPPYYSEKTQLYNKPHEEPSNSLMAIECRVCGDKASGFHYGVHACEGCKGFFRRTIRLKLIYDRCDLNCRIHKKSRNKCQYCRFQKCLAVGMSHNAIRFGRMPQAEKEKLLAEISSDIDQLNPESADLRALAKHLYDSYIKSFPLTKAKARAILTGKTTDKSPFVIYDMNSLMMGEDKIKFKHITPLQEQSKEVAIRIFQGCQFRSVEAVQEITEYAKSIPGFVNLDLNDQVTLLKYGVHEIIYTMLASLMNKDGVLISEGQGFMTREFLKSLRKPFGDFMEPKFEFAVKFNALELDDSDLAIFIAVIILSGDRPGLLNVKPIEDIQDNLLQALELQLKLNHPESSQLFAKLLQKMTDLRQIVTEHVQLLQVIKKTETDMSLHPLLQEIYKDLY
Summary of the method: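 Agonist activity was taken from a beta-lactamase reporter (FRET substrate, 1 h at room temperature) in HEK293H cells carrying a PPARg UAS-bla construct. Compounds in DMSO were incubated 17 h at 37C after a 5 h cell pre-incubation.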

[10] = qHTS assay to identify small molecule antagonists of the peroxisome proliferator-activated receptor gamma (PPARg) signaling pathway - cell viability counter screen (AID 743194); conditions: PPARg-bla HEK293H viability, CellTiter-Glo luminescence, 17 h, co-treated with 50 nM rosiglitazone; activity change, negative = cytotoxicity: at 62.6 µM (top of the series) unless noted; also: potency is read from the fitted curve at half-maximal effect; nearly all actives have a fitted effect of over 55% in size
Summary of the method: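 Cytotoxicity counter screen in PPARg-bla HEK293H cells, same wells as reporter assay. Compounds plus 50 nM rosiglitazone (final) for 17 h at 37 C, then viability read by CellTiter-Glo luminescence.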

[11] = qHTS assay for small molecule agonists of the antioxidant response element (ARE) signaling pathway (AID 743202; active = well fitted activation curve with a large enough effect in the signal ratio in the repeat runs, not every such curve was filed as active; inconclusive = weak or mixed curves, or effect the other way; inactive = no such curve, though single readings can be large or run the other way; the % refers to the signal ratio; also: % is scaled to controls: 0 for no effect and ±100 for the full control effect); conditions: HepG2 ARE-bla reporter, beta-lactamase FRET, 16 h; activation: at 73.3 µM (top of the series) unless noted
Summary of the method: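 HepG2 ARE-bla cells; 16 h treatment at 37 C; FRET-based beta-lactamase fluorescence read after 2 h substrate incubation at room temperature.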

[12] = Caspase-3/7 induction in CHO-K1 cells by small molecules, qHTS cell viability counter screen (AID 1346979); also: potency is read from the fitted curve at half-maximal effect; nearly all actives have a fitted effect of over 35% in size
Summary of the method: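 Viability readout by fluorescence (CellTiter-Fluor) on wild-type CHO-K1 cells exposed for 16hr at 37C and 5% CO2 to compounds delivered in DMSO; reagent incubated 1hr before reading.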

[13] = qHTS assay for small molecules that induce genotoxicity in human embryonic kidney cells expressing luciferase-tagged ATAD5 (AID 651632); also: potency is read from the fitted curve at half-maximal effect; nearly all actives have a fitted effect of over 15% in size
Summary of the method: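 A rise in luciferase signal from ATAD5-tagged HEK293T cells marks genetic stress. Cells were exposed to compounds for 16 hr at 37C, 5% CO2, then luciferase was quantified after a 30 min room-temperature incubation with Amplite.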

[14] = target: Glucocorticoid receptor (Homo sapiens) (UniProt P04150); experiment: qHTS assay to identify small molecule antagonists of the glucocorticoid receptor (GR) signaling pathway (AID 720692; active = well fitted inhibition curve with a large enough effect in the signal ratio in the repeat runs, not every such curve was filed as active; inconclusive = weak or mixed curves, or effect the other way; inactive = no such curve, though single readings can be large or run the other way; the % refers to the signal ratio; also: potency is read from the fitted curve at half-maximal effect); conditions: GR-bla HeLa, beta-lactamase FRET ratio, dexamethasone-stimulated, 18 h; activity change, negative = inhibition: at 58.5 µM (top of the series) unless noted
UniProt P04150, sequence (P04150 whole entry, looked up): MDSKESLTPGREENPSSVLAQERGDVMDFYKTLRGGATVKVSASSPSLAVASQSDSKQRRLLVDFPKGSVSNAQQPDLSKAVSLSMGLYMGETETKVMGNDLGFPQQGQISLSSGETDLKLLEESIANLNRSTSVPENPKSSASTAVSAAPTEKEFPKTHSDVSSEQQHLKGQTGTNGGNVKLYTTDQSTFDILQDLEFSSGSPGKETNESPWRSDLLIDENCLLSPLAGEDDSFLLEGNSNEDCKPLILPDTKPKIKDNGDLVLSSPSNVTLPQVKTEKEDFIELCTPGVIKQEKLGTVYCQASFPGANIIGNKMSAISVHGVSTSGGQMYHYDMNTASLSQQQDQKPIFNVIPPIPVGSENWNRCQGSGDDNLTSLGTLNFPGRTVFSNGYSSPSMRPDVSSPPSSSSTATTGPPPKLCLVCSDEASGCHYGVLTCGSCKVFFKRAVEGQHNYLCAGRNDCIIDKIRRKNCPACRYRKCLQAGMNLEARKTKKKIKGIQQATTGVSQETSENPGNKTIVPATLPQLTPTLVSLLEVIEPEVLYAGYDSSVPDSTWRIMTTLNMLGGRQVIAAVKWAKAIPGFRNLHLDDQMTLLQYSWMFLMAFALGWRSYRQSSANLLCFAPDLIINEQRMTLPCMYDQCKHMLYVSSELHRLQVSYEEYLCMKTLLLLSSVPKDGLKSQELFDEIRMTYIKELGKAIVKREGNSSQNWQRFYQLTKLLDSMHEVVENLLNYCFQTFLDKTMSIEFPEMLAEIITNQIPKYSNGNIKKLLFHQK
Summary of the method: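 Inhibition of dexamethasone-driven (5 nM final) beta-lactamase expression was measured in GRE-reporter HeLa cells over 18 h at 37C. Fluorescence was read after 2 h with the B/G FRET substrate at room temperature.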

[15] = qHTS assay for identifying genotoxic compounds that show differential cytotoxicity against isogenic chicken DT40 cell lines with known DNA damage response pathways - Rad54/Ku70 mutant cell line (AID 743015); conditions: DT40 Rad54/Ku70 mutant viability, CellTiter-Glo, 40 h; activity change, negative = cytotoxicity: at 66.8 µM (top of the series) unless noted; also: potency is read from the fitted curve at half-maximal effect; nearly all actives have a fitted effect of over 60% in size
[16] = target: Estrogen receptor (Homo sapiens) (UniProt P03372); experiment: qHTS assay to identify small molecule agonists of the estrogen receptor alpha (ER-alpha) signaling pathway using the BG1 cell line (AID 743079); conditions: BG1Luc4E2 cells, ERE-luciferase agonist, 22 h; activation: at 70.3 µM (top of the series) unless noted; also: potency is read from the fitted curve at half-maximal effect; nearly all actives have a fitted effect of over 20% in size
UniProt P03372, sequence (P03372 whole entry, looked up): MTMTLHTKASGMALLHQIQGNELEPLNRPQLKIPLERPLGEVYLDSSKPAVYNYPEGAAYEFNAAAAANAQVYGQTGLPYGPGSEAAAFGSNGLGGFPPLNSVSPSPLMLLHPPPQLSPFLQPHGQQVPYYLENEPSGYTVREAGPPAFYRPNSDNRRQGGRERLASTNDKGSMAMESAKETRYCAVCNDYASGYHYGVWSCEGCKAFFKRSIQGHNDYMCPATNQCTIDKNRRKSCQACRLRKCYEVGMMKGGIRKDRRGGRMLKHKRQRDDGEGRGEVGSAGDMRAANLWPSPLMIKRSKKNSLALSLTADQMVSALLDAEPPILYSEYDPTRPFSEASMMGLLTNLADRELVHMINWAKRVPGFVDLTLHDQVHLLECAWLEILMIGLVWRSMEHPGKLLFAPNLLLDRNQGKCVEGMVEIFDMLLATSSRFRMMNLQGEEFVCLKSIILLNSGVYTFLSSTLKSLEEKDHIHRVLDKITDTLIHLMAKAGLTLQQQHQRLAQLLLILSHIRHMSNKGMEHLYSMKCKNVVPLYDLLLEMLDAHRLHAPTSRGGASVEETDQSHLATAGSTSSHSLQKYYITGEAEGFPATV

[17] = qHTS assay to identify small molecule antagonists of the estrogen receptor alpha (ER-alpha) signaling pathway using the BG1 cell line (AID 743080; calls by dose curve;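 also: BG1 cells stimulated with 17beta-estradiol alongside compound; potency is read from the fitted curve at half-maximal effect; nearly all actives have a fitted effect of over 25% in size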); conditions: BG1Luc4E2 ERE-luciferase antagonist mode, luminescence; activity change, negative = inhibition: at 70.3 µM (top of the series) unless noted
Summary of the method: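 Endogenous full-length ER-alpha in BG1-Luc-4E2 cells drives a stably integrated 4×ERE luciferase gene; compounds were tested against 17beta-estradiol over 21.5 h, with luminescence and multiplexed viability fluorescence recorded.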

[18] = qHTS assay to identify small molecule antagonists of the estrogen receptor alpha (ER-alpha) signaling pathway using the BG1 cell line - cell viability counter screen (AID 743081); conditions: BG1Luc4E2 viability, CellTiter-Fluor, 22 h; activity change, negative = cytotoxicity: at 70.3 µM (top of the series) unless noted;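 also: compound given together with 17beta-estradiol as the ER stimulus; potency is read from the fitted curve at half-maximal effect; nearly all actives have a fitted effect of over 45% in size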
[19] = qHTS assay to identify small molecule that activate the aryl hydrocarbon receptor (AhR) signaling pathway - cell viability counter screen (AID 743086);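 also: HepG2 liver cells carrying the AhR DRE luciferase reporter; % is scaled to controls: 0 for no effect and ±100 for the full control effect; nearly all actives have a fitted effect of over 45% in size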
Summary of the method: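 HepG2-AhR-luc (HG2L7.5c1) cells, 4000/well, treated 24 h at 37 C with compound; viability measured as CellTiter-Fluor fluorescence after 30 min in the same wells as the luciferase read.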

[20] = target: Nuclear receptor subfamily 1 group I member 2 (Rattus norvegicus) (UniProt Q9R1A7); experiment: Rat pregnane X receptor (rPXR) activation by small molecules, qHTS assay (AID 1346983); conditions: rPXR luciferase reporter cells, One-Glo luminescence, 24 h; max activation: active compounds read high; also: potency is read from the fitted curve at half-maximal effect; nearly all actives have a fitted effect of over 20% in size
UniProt Q9R1A7, sequence (Q9R1A7 whole entry, looked up): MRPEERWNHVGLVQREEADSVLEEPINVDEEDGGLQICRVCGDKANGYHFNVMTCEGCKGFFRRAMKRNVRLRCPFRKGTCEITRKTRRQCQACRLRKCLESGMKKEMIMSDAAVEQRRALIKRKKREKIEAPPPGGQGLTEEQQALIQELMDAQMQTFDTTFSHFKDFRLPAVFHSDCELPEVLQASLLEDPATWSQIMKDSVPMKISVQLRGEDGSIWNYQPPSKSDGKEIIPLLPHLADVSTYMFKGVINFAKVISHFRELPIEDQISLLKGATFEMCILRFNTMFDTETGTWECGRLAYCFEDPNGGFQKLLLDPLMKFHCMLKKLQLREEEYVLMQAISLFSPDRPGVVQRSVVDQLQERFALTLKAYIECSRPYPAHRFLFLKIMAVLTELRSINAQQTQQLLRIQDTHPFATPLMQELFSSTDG
Summary of the method: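 Cell-based rPXR activation assay: rPXR cells, 2,000 per well, rested 5hr at 37 C, then exposed to compounds in DMSO for 24 hr at 37 C. Luciferase activity read by One-Glo luminescence after 30 min at room temperature.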

[21] = target: Nuclear receptor subfamily 1 group I member 2 (Homo sapiens) (UniProt O75469); experiment: CYP3A4 induction through human pregnane X receptor (PXR) by small molecules, qHTS assay (AID 1346984); conditions: DPX-2 HepG2 PXR, CYP3A4-luciferin luminescence, 24 h; activation: at 46.1 µM (top of the series) unless noted; also: % is scaled to controls: 0 for no effect and ±100 for the full control effect; nearly all actives have a fitted effect of over 40% in size
Summary of the method: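 Read-out is luminescence after One-Glo addition, following a 3 hr, 37C incubation with Luciferin-IPA CYP3A4 substrate (3uM final). Before that, compounds were on DPX-2 cells (HepG2 co-transfected with PXR element plus CYP3A4-promoter luciferase) for 24 hr at 37C.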
Tags tell the direction and shape of the fitted curve or compound fluorescence and quenching.

CC(C)CNCC(C)C
inconclusive: Potency [2] 27 µM [rising, single point] | activity change, negative = inhibition [4] 20.5%
inactive: Potency [1] | Potency [3] | Potency [5] | Potency [6]

CCCCCCCCCCCCN(CCCCCCCCCCCC)CCCCCCCCCCCC
inactive: Potency [9] | Potency [11]
inconclusive: Potency [7] 12.4 µM [activator, single point] | Potency [1] 6.22 µM [rising, single point] | Potency [8] 17.5 µM [cytotoxic, partial curve, poor fit] | Potency [10] 0.079 µM [cytotoxic, full curve, poor fit] | Potency [12] 24.8 µM [rising, partial curve, poor fit] | Potency [6] 32.3 µM [inhibitor, partial curve]

CC(=O)OCC(=O)[C@@]12OC3(CCCC3)O[C@@H]1C[C@H]1[C@@H]3CCC4=CC(=O)C=C[C@]4(C)[C@@]3(F)[C@@H](O)C[C@@]12C
active: Potency [20] 25.1 µM
inactive: Potency [19] | Potency [21]
inconclusive: Potency [13] 0.0106 µM [activator, full curve, poor fit] | Potency [14] 0.0477 µM [activator, full curve] | Potency [1] 29.8 µM [cytotoxic, partial curve] | Potency [15] 33.5 µM [cytotoxic, single point] | Potency [16] 0.75 µM [activator, partial curve] | Potency [17] 0.944 µM [rising, partial curve, poor fit] | Potency [18] 33.5 µM [rising, single point]
